# Among all 370,000 compounds or so, about 500 (0.14%) were called active. The shares of active, inactive and inconclusive entries below differ from those in the screen. The call rests on the fitted dose curve; in most records, active means well fitted activation curve with a large enough effect; inconclusive means small, poorly fitted or top-dose-only effect; inactive means no such curve, though single readings can be large or run the other way. A potency beside an inconclusive call is a rough fit, not a confirmed value.
# Test: qHTS of alpha-syn Inhibitors; further: nearly all actives have a fitted effect of over 65% in size; on growth rescue (activation): % of control where 0% means no effect
# Conditions: Yeast expressing alpha-synuclein, BacTiter-Glo, 24 h; Potency: growth rescue unless noted; growth rescue (activation): at 46.1 µM (top of the series) unless noted
# Outline: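 Rescue of yeast growth: cells expressing toxic alpha-synuclein, induced in galactose at OD600 0.02, incubated with compound 24 h at 30 C. ATP luminescence quantified growth; inhibitors of toxicity appear as activators.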
# Potency means the concentration at half of the fitted maximal effect; tags describe the fitted curve by direction and shape.
Structure (SMILES),Potency,growth rescue (activation)
CC(=O)N1N=C(c2cccs2)CC1c1cccc([N+](=O)[O-])c1 (centres undefined),inactive,
Cc1ccc(Cc2c(-c3ccco3)nc3ccc(Br)cn23)cc1,"inconclusive: 5.62 µM [activator, single point]",
OCCNc1ncnc2c1c(-c1ccccc1)c(-c1ccccc1)n2Cc1ccco1,active: 12.6 µM,
O=C(CC(Nc1ccc(F)cc1)C(=O)O)c1ccccc1 (centres undefined),"inconclusive: 12.6 µM [activator, partial curve]",
CCOC(=O)C1C(=O)C=C(c2ccc(Br)cc2)CC1c1ccco1 (centres undefined),inactive,
O=C1c2ccccc2C(=O)C1c1nccc2ccccc12,"inconclusive: 6.31 µM [activator, full curve, poor fit]",
COC(=O)c1ccc(CSc2nnc(-c3ccc4c(c3)OCO4)n2-c2ccccc2)o1,"inconclusive: 35.5 µM [activator, single point]",
CCCn1c(CC)nc([N+](=O)[O-])c1Sc1ccc(F)cc1,inactive,
Cc1cc2nnn(-c3nnc(-c4ccccc4)c4ccccc34)c2cc1C,inactive,
O=C1[C@H]2[C@H](C=CC[C@H]2C(=O)N2CCN(c3ccccc3)CC2)CCN1Cc1ccccc1,"inconclusive: 12.6 µM [activator, single point]",
O=C(N/N=C1/C(=O)c2cccc3cccc1c23)c1ccc(Cl)cc1,"inconclusive: 3.98 µM [activator, single point]",
CC(C)(C)c1ccc2c(c1)OC(C(=O)N/N=C\c1ccccn1)CO2 (centres undefined),active: 14.1 µM,
Cn1c(=O)c2[nH]c(N3CCN(c4cccc(O)c4)CC3)nc2n(C)c1=O,inactive,
COc1ccc(CC(=O)OCC(=O)N2CCCc3ccccc32)cc1OC,"inconclusive: 12.6 µM [activator, single point]",
CC1(C(=O)Nc2ccc3c(c2)OCCO3)CN(S(C)(=O)=O)CC(=O)N1Cc1ccco1 (centres undefined),inactive,
O=C(NCc1ccco1)C(=O)NCC1OCCN1S(=O)(=O)c1ccc(F)cc1 (centres undefined),"inconclusive: 3.16 µM [activator, single point]",
CC(C)(C)c1ccc(CC(=O)N2CCC2(C)C(=O)Nc2cnc3ccccc3c2)cc1 (centres undefined),"inconclusive: 31.6 µM [activator, single point]",
OCCNc1nc(-c2ccccc2)c2cc(Br)ccc2n1,"inconclusive: 25.1 µM [activator, single point]",
CC(C)COc1ccc(-c2cc(C(=O)NN)[nH]n2)cc1,"inconclusive: 5.62 µM [activator, single point]",
COC(=O)c1c(NC(=O)C(=O)N2CCCC2)sc2c1CC(C)(C)OC2,"inconclusive: 12.6 µM [activator, partial curve]",
O=C(c1ccc(Cl)cc1)C(Cn1cncn1)C(Sc1ccccc1)c1ccccc1 (centres undefined),"inconclusive: 35.5 µM [activator, single point]",
COc1ccc(CCn2c(C)cc(C(=O)CCl)c2C)cc1OC,inactive,
CCCn1nnnc1NC(=O)COc1ccc(Br)cc1,"inconclusive: 28.2 µM [activator, single point]",

Structure (SMILES),Potency,growth rescue (activation)
CCn1nc2cc(C(=O)NCc3cc(C(F)(F)F)cc(C(F)(F)F)c3)ccc2c1OC,"inconclusive: 25.1 µM [activator, single point]",
O=C(CC(=O)c1ccccc1)CS(=O)(=O)c1ccccc1,"inconclusive: 35.5 µM [activator, single point]",
Cc1[nH]n(C2=NCCS2)c(=O)c1N=Nc1cccc(C(F)(F)F)c1,"inconclusive: 5.62 µM [activator, single point]",
COc1ccc(Cl)cc1NCCC(O)c1ccc(F)cc1 (centres undefined),"inconclusive: 11.2 µM [activator, single point]",
COc1ccc(NC(=S)NC(=O)Cc2ccccc2)cc1,inactive,
CNC(=O)OCc1ncn(-c2ccccc2)c1COC(=O)NC,"inconclusive: 5.62 µM [activator, single point]",
Cc1ccc(C(=O)NNC(=S)NC(=O)c2ccc(Cl)cc2Cl)cc1,active: 1.12 µM,
CN(C(=O)c1ccc2c(Cl)c3c(nc2c1)CCC3)c1ccccc1,"inconclusive: 3.55 µM [activator, single point]",
N=C1S/C(=C\c2cn[nH]c2-c2ccc(F)cc2)C(=O)N1c1ccccc1F,"inconclusive: 28.2 µM [activator, single point]",
CN(c1ccccc1)S(=O)(=O)c1nnc(NC(=O)C2CCCCC2)s1,"inconclusive: 31.6 µM [activator, single point]",
CCc1nc2c(OCc3cc(Cl)cc(Cl)c3)cccn2c1N(C=O)Cc1ccccc1,"inconclusive: 20 µM [activator, single point]",
C[C@@]12CC(=O)NC1N(C(=O)c1cccc(C(F)(F)F)c1)C(c1ccccc1O)C2 (some centres undefined),"inconclusive: 31.6 µM [activator, single point]",
Cc1cc(C(F)(F)F)n2[nH]c(=O)c(N=Nc3ccccc3)c2n1,"inconclusive: 22.4 µM [activator, single point]",
CCn1cc(SCC(=O)N2CCc3ccccc32)c2ccccc21,"inconclusive: 25.1 µM [activator, single point]",
Cc1ccc(CN(C)C(=O)CN2C(=O)NC(c3ccccc3)(c3ccccc3)C2=O)c(C)c1,"inconclusive: 25.1 µM [activator, single point]",
CC(=O)Nc1cc(-c2ccc(N)nc2)cn2c(-c3cccc(C(F)(F)F)c3)cnc12,"inconclusive: 3.16 µM [activator, single point]",
NC(=S)NNC(=O)c1cc(C(F)(F)F)cc(C(F)(F)F)c1,inactive,
COCCN(C(=O)COC(=O)CCC1CCCCC1)c1c(N)n(Cc2ccccc2)c(=O)[nH]c1=O,"inconclusive: 28.2 µM [activator, single point]",
Cc1ccccc1NS(=O)(=O)c1cc(C(=O)N2CCc3ccccc3C2)ccc1C,"inconclusive: 15.8 µM [activator, single point]",
CCCCOc1ccc(CNC(=O)CN2CCSc3ccccc32)cc1,"inconclusive: 28.2 µM [activator, single point]",
Cc1cc(/C=C/C(=O)O)c(C)n1-c1ccc(Cl)cc1,active: 10 µM,
COc1ccccc1C(=O)N1CCN(C2CCN(Cc3ccccc3)CC2)CC1,inactive,
CCCN(CC(=O)Nc1ccc(C)cc1Br)CC(=O)Nc1ccc(F)c(F)c1F,"inconclusive: 25.1 µM [activator, single point]",

Structure (SMILES),Potency,growth rescue (activation)
Cc1ccc(NC(=O)CN(c2ccccc2)S(=O)(=O)N(C)C)cc1Cl,"inconclusive: 20 µM [activator, single point]",
O=c1oc2ccccc2c2oc3cc(O)c(O)cc3c12,inactive,
O=C(Nc1nnc(C2COc3ccccc3O2)o1)c1ccc(F)cc1 (centres undefined),active: 17.8 µM,
COC(=O)C1=NN(C(=O)c2ccc(Cl)cc2)C(O)(c2ccccc2)C1 (centres undefined),active: 20 µM,
CCOC(=O)C1CCCN(c2c(C(=O)c3ccccc3)cnc3ccc(OC)cc23)C1 (centres undefined),"inconclusive: 28.2 µM [activator, single point]",
COc1ccccc1CN=c1c([N+](=O)[O-])nn(-c2ccc3c(c2)OCCO3)n1O,inactive,
C[C@H]1CN([C@@H](C)CO)C(=O)c2cc(Br)cnc2O[C@@H]1CN(C)S(C)(=O)=O,"inconclusive: 22.4 µM [activator, single point]",
CCC(=O)NC(c1cccs1)c1ccc2cccnc2c1O (centres undefined),"inconclusive: 20 µM [activator, single point]",
CC1(C(=O)NCc2ccccc2Br)CCN1Cc1ccc(-c2ccccn2)cc1 (centres undefined),"inconclusive: 22.4 µM [activator, single point]",
Cc1[nH]c(N=Nc2ccccc2)nc1N=Nc1ccccc1,"inconclusive: 5.62 µM [activator, single point]",
Cc1cccc(COCC(Cc2ccccc2)N2CCN(C(=O)c3ccc(C(F)(F)F)cc3)CCC2=O)c1 (centres undefined),"inconclusive: 25.1 µM [activator, single point]",
CC(C)[C@@H]1CC[C@@H](C)c2c(-c3ccccc3)n[nH]c21,"inconclusive: 10 µM [activator, partial curve]",
CCOc1cc(C(=O)OCc2cc(=O)n3c(C)csc3n2)ccc1OC,,inconclusive: 135% [activator] [at 1.84 µM]
CC(=O)NC(c1cccc(F)c1)c1nc(-c2ccc(C)c(C)c2)cs1 (centres undefined),"inconclusive: 11.2 µM [activator, partial curve]",
COC(=O)C1=CN(c2c(C)cc(C)cc2C)C(N)=C(C#N)C1c1ccccc1 (centres undefined),"inconclusive: 22.4 µM [activator, single point]",
O=C(CSc1nc(-c2ccccc2)cc(=O)[nH]1)Nc1ccccc1F,"inconclusive: 5.62 µM [activator, single point]",
O=C(c1ccc(Cl)cc1)N1CCC(O)(CSc2ccc(Cl)cc2)CC1,"inconclusive: 22.4 µM [activator, single point]",
CC1(C(=O)Nc2ccc3c(c2)OCCO3)CCN1C(=O)C/C=C/c1ccccc1 (centres undefined),inactive,
CCOC(=O)c1cnc(-n2nc(C)cc2C)nc1NNc1cc(C)nc(-c2ccccc2)n1,"inconclusive: 35.5 µM [activator, single point]",
COc1ccccc1C1=NC(c2ccccc2)CN1c1ccccc1 (centres undefined),inactive,
CCOC(=O)c1c(N)sc(C(N)=O)c1C,inactive,
CCSc1ncnc2nc[nH]c12,"inconclusive: 6.31 µM [activator, single point]",
Cn1c(=O)n(C)c2cc(C(=O)c3ccccc3)ccc21,"inconclusive: 35.5 µM [activator, single point]",

# — PubChem BioAssay AID652106 (National Center for Advancing Translational Sciences (NCATS), 2013)
